The record followed here is patent publication US20100303801A1 (CRUCELL HOLLAND B V, published 2010).

The test has as its target T1, recombinantly expressed purified soluble WNV E-protein (truncated form, strain 382-99) (West Nile virus strain 382-99, UniProt Q9Q6P4 291-696).
T1 construct: also called recombinant WNV E protein; truncated E protein; not shown: Myc tag and His tag from pAdapt.myc.his
T1 sequence: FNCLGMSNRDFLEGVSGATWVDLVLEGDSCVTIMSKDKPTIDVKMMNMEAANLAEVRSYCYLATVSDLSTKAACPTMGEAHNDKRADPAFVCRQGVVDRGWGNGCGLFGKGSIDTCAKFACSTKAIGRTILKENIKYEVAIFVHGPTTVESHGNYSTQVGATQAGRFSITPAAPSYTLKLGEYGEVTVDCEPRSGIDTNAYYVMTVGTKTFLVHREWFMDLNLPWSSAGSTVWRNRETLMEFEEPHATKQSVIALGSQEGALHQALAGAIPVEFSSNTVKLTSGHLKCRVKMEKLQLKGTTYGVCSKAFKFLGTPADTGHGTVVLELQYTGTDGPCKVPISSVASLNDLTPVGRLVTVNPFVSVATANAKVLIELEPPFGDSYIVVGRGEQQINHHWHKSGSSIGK
In words: phage ELISA on coated soluble WNV E-protein, OD 492 nm. For orientation: In an ELISA, binding on a coated surface is turned into a signal by an enzyme label.

B1: single-chain phage antibody SC04-348 (scFv)
scFv: EVQLVQSGGGLVQPGRSLRLSCAASGFTFDDYAMHWVRQAPGKGLEWVSGISWNSGNIGYADSVKGRFTISRDNAKNSLYLQMNSLRAEDTALYYCAKDKSYYYGSGTSGGWFDPWGQGTLVTVSSGTGGSGGTGSGTGGST[sequence of about 100 residues omitted]
For B1, the binding result is “no binding”.
